# Source: the supplement of paper PMC11876631
# Numbering of substitutions follows the chain as printed. Names and notes keep the numbering of the source. ± gives the standard deviation of the averaged measurements. Laboratory Escherichia coli strains with one amino-acid change in an essential protein, pooled on minimal glucose agar with carbenicillin or gentamicin at twice the control MIC (plus kanamycin and chloramphenicol for the plasmids), 48 h. Fold change of barcode share against drug-free plates; higher = less susceptible. Active = above 20 in both replicates (the paper's putatively resistant). '<' = one read or none on drug, '>' = one read or none on a drug-free plate. Shares are relative, so most strains fall below 1 when a few take over. Listed are strains with at least 15 reads on both drug-free plates, and hits; most hits rest on fewer reference reads. Replicate rank correlation about 0.5. Edits are read from barcodes.
# B1: murE F204A (protein)
# chain: MADRNLRDLLAPWVPDAPSRALREMTLDSRVAAAGDLFVAVVGHQADGRRYIPQAIAQGVAAIIAEAKDEATDGEIREMHGVPVIYLSQLNERLSALAGRFYHEPSDNLRLVGVTGTNGKTTTTQLLAQWSQLLGEISAVMGTVGNGLLGKVIPTENTTGSAVDVQHELAGLVDQGATFCAMEVSSHGLVQHRVAALKFAASVATNLSRDHLDYHGDMEHYEAAKWLLYSEHHCGQAIINADDEVGRRWLAKLPDAVAVSMEDHINPNCHGRWLKATEVNYHDSGATIRFSSSWGDGEIESHLMGAFNVSNLLLALATLLALGYPLADLLKTAARLQPVCGRMEVFTAPGKPTVVVDYAHTPDALEKALQAARLHCAGKLWCVFGCGGDRDKGKRPLMGAIAEEFADVAVVTDDNPRTEEPRAIINDILAGMLDAGHAKVMEGRAEAVTCAVMQAKENDVVLVAGKGHEDYQIVGNQRLDYSDRVTVARLLGVIA
# B2: murE F204Q (protein)
# chain: B1 chain with A204Q
# B3: murE I64P (protein)
# chain: B1 chain with I64P, A204F
# B4: murE I64A (protein)
# chain: B1 chain with I64A, A204F
# B5: murE I64Q (protein)
# chain: B1 chain with I64Q, A204F
# B6: murE V463A (protein)
# chain: B1 chain with A204F, V463A
# B7: murE I64W (protein)
# chain: B1 chain with I64W, A204F
# B8: murE F204W (protein)
# chain: B1 chain with A204W
# B9: murD L178Q (protein)
# chain: MADYQGKNVVIIGLGLTGLSCVDFFLARGVTPRVMDTRMTPPGLDKLPEAVERHTGSLNDEWLMAADLIVASPGIALAHPSLSAAADAGIEIVGDIELFCREAQAPIVAITGSNGKSTVTTLVGEMAKAAGVNVGVGGNIGLPALMLLDDECELYVLELSSFQLETTSSLQAVAATIQNVTEDHMDRYPFGLQQYRAAKLRIYENAKVCVVNADDALTMPIRGADERCVSFGVNMGDYHLNHQQGETWLRVKGEKVLNVKEMKLSGQHNYTNALAALALADAAGLPRASSLKALTTFTGLPHRFEVVLEHNGVRWINDSKATNVGSTEAALNGLHVDGTLHLLLGGDGKSADFSPLARYLNGDNVRLYCFGRDGAQLAALRPEVAEQTETMEQAMRLLAPRVQPGDMVLLSPACASLDQFKNFEQRGNEFARLAKELG
# B10: murD L178D (protein)
# chain: B9 chain with Q178D
# B11: murD L178P (protein)
# chain: B9 chain with Q178P
# Target: Escherichia coli (laboratory strain)
# Assay: barcode share on antibiotic plates over drug-free plates; higher = less susceptible
# Description: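 A pool of E. coli strains, each edited to carry one amino-acid change in an essential protein, was grown for 48 h on minimal glucose agar with or without antibiotic; strain barcodes were sequenced; mean of two replicates.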
# [1] = antibiotic: carbenicillin, 2× MIC (3.1 µg/mL)
# [2] = antibiotic: gentamicin, 2× MIC (MIC 0.45 µg/mL)
Protein,fold change of barcode share [1],fold change of barcode share [2]
B1,0.338 ± 0.011,0.0114 ± 0.0058
B2,0.129 ± 0.11,< 0.0174
B3,0.0426 ± 0.036,
B4,0.306 ± 0.063,0.0131 ± 0.012
B5,0.275 ± 0.055,< 0.0108
B6,0.331 ± 0.24,0.00643 ± 0.0035
B7,0.526 ± 0.32,< 0.0105
B8,0.363 ± 0.11,< 0.0163
B9,0.175 ± 0.01,< 0.00624
B10,0.367 ± 0.17,0.018 ± 0.0079
B11,0.536 ± 0.47,< 0.016
